This is one part of the list. At the low end of the ranking the order means little.

The assay addresses SIX1-Q177R homeodomain (UniProt Q15475). Nature of the assay: universal protein binding microarray. Particulars: Universal all-10-mer PBM (8x60K, AMADID 030236), 300 nM GST-tagged protein, Alexa Fluor 488 anti-GST; buffer, salt, pH and temperature not stated; high values mean tight binding; most listed sequences are background and not binding sites; double strand, one strand shown.
On to ACTTCTAA, for which the binding signal is -0.247 E-score.
Next, ACCCGGGT: 0.377 E-score; AGACTACA: 0.0902 E-score; AACATCAA: -0.204 E-score.
To GCCAGTCC belongs -0.174 E-score; to CTTCGGGC, 0.0814 E-score.
Next, GCGCGAAA: 0.0135 E-score; TCCTGCAA: 0.0571 E-score; GAATAGCC: -0.24 E-score.
ACACGAGT: the binding signal was determined as 0.401 E-score.
Next, CGCGCCGA: -0.0159 E-score.
Next, ACACGATC: 0.385 E-score; CGAGCCAA: -0.0626 E-score; GATTCTTA: -0.237 E-score.
Next, CGAGTCAC: 0.196 E-score.
Consider GAAAATCA, for which the binding signal is -0.0977 E-score.
To ACACGTTG belongs 0.331 E-score.
Turning to AGCAAGTG, the binding signal worked out at 0.0833 E-score.
For AACTAATC, the binding signal was -0.00173 E-score.
Next, ATAGGGTC: 0.136 E-score; CCGCTTCA: 0.0414 E-score; ATCTGAAA: -0.128 E-score.
Turning to ACATTGAG, the binding signal was -0.0886 E-score.
To CTTATCAC belongs 0.0462 E-score; to CCCCTTCC, 0.135 E-score; to CTACTAAG, 0.0576 E-score.
As to CCACTTAC, the binding signal was 0.0867 E-score.
Next, CAACTAGG: 0.00268 E-score; CCCCAGCA: 0.0306 E-score; TAACGAGA: -0.221 E-score.
Take ACCTTTTG: the binding signal came to 0.00653 E-score.
On to GAATCTGC, for which the binding signal is -0.0906 E-score.
Next, CTCCAAAA: -0.0483 E-score; AACCGTCA: -0.0735 E-score.
To TCCTGAAA belongs -0.159 E-score.
Regarding CGAGTACA, the binding signal turned out to be 0.28 E-score.
With ACTTCTCA, the binding signal was -0.216 E-score.
Next, ACGGATGG: -0.0241 E-score; CAGGTGAC: 0.118 E-score; TGGCGGAA: -0.129 E-score.
Next, CCTCACTA: -0.094 E-score; CCCAACCC: 0.128 E-score; TCCGGTCA: 0.11 E-score.
Take AAAATAGA: the binding signal is -0.0638 E-score.
Next, AGACGAGC: -0.199 E-score.
To TCTGAGCA belongs -0.266 E-score.
To ATTCAGGG belongs 0.0674 E-score.
AGACCACT: the binding signal is -0.179 E-score.
In the case of AAAAGATT, the binding signal is -0.195 E-score.
For AGGTAACC, the binding signal worked out at 0.063 E-score.
Take AGCTCTAC: the binding signal amounted to 0.00291 E-score.
Turning to ACAATTTC, the binding signal is -0.0215 E-score.
Turning to TGCCTACA, the binding signal was determined as 0.00911 E-score.
With GATGTGGA, the binding signal is 0.0831 E-score.
Regarding CCGTCTCA, the binding signal is -0.0294 E-score.
As to ACGTAAGC, the binding signal was -0.127 E-score.
Turning to TGAGGGCA, the binding signal is -0.135 E-score.
For the sequence CGTGTCAA, the binding signal amounted to 0.409 E-score.
Regarding AGCTGATC, the binding signal is -0.0146 E-score.
With CGTTTGTC, the binding signal was 0.0904 E-score.
Next, ATATCGCG: -0.189 E-score; GGCCAGCC: -0.202 E-score.
Next, ACTGGCGC: 0.00477 E-score; CTTAGCTA: -0.332 E-score.
In the case of ACAGCCGG, the binding signal was -0.0475 E-score.
For the sequence CAATAAAA, the binding signal was -0.0532 E-score.
To ACTGCCAT belongs -0.213 E-score.
Next, ACTCTGCA: 0.101 E-score; GTTCGGGA: 0.15 E-score.
To AGGATGCG belongs -0.236 E-score; to CGGTCTCC, 0.0699 E-score; to AAACACCA, 0.454 E-score.
As to ACGTTTGA, the binding signal was -0.0774 E-score.
To CGGGCTGA belongs -0.155 E-score; to GTCTTCAC, -0.0354 E-score.
Next, CCCAGACA: 0.16 E-score; ATTTGATA: -0.132 E-score.
Next, AGGTAATA: -0.0574 E-score; CCCGACGG: 0.0821 E-score.
Consider GATTGACA, for which the binding signal stood at 0.0651 E-score.
Next, AAGCAAAC: -0.187 E-score; TACGATAA: -0.074 E-score.
Next, ACCGCCGC: 0.0147 E-score; AACCCACC: 0.194 E-score; AGGGGCAG: -0.0321 E-score.
As for GGCGGAAC, the binding signal is -0.0827 E-score.
In the case of CCGGATAC, the binding signal is 0.262 E-score.
In the case of GCGAAGGA, the binding signal is -0.00445 E-score.
Regarding CCTTTGAG, the binding signal is 0.21 E-score.
Next, CGCATAAG: -0.216 E-score; ATAAGGCA: -0.107 E-score; AGTAGACG: -0.0562 E-score.
With CGTTAGTC, the binding signal came to 0.0541 E-score.
To CTAAAAAC belongs -0.184 E-score; to GTGCCACA, 0.0784 E-score; to CATCTAAA, -0.204 E-score.
Consider GACGGTAA, for which the binding signal was -0.0789 E-score.
To TAATGTAA belongs 0.0321 E-score; to CGTTACGC, -0.145 E-score; to GTTCAAAC, 0.0727 E-score.
Next, ATTTGCTA: -0.11 E-score; AATTAAAA: -0.144 E-score.
As to ATTATGGG, the binding signal was determined as 0.0818 E-score.
Next, CACGCACC: 0.344 E-score.
Take GCATGTTA: the binding signal is -0.205 E-score.
Take AGCGTTAT: the binding signal was determined as 0.108 E-score.
Take GCCGTATA: the binding signal was -0.0667 E-score.
For CCACATGA, the binding signal was -0.163 E-score.
To TTGTACAA belongs -0.106 E-score.
Next, CGGTACAC: 0.435 E-score.
To GCGTAGCA belongs -0.0833 E-score.
For the sequence TGCCTCAA, the binding signal was found to be 0.0352 E-score.
Take CACATCAC: the binding signal was -0.0442 E-score.
Next, AGTCTGGA: -0.0731 E-score; CGCAACTA: -0.136 E-score; CATCCTAA: -0.298 E-score.
For ACGCTGCA, the binding signal was 0.00161 E-score.
With AACCTTAA, the binding signal is -0.169 E-score.
Next, ACGAGAGG: -0.152 E-score.
As for TCATCCAA, the binding signal was determined as 0.068 E-score.
Next, GCGCGGGA: 0.122 E-score; TCCAGTCA: -0.114 E-score; TCGTCAGA: -0.016 E-score.
Next, TGACGGCA: -0.248 E-score.
As to GATTACAC, the binding signal was 0.451 E-score.
Next, GCATAAGA: -0.125 E-score; AGCTCGGG: 0.0662 E-score; CCAAACTC: -0.0893 E-score.
To ACACGCCC belongs 0.422 E-score; to CGTACCGA, -0.198 E-score.
To AAGGTGAC belongs 0.112 E-score; to ATCTCCCG, 0.0129 E-score; to TAGGGGAA, -0.0545 E-score.
In the case of GAGACGGA, the binding signal was -0.0971 E-score.
Next, GGTGATTA: -0.0502 E-score.
To AATAAGGA belongs -0.141 E-score.
To GCATCAGA belongs 0.188 E-score; to GCCAAGGA, -0.018 E-score; to ATCAACGG, -0.136 E-score.
As for CACCCCGA, the binding signal was 0.346 E-score.
ACTTAGGC: the binding signal was -0.171 E-score.
Next, ACCTGTTC: -0.0245 E-score.
To ACGGACGA belongs -0.14 E-score.
To CAGAGGCC belongs -0.167 E-score.
CGGAGTAG: the binding signal was found to be 0.127 E-score.
Regarding ACCTTTTC, the binding signal is -0.165 E-score.
Regarding ATGATGAG, the binding signal is -0.257 E-score.
With GTCATTCA, the binding signal is -0.0203 E-score.
Next, GGCGGACA: 0.111 E-score; CATTAGTC: -0.0518 E-score.
On to CCTGAGAA, for which the binding signal was -0.0446 E-score.
To GCTTATAC belongs -0.165 E-score; to GCATCGGC, -0.0433 E-score.
For the sequence TAATCAAA, the binding signal was 0.0343 E-score.
With CCGATGAC, the binding signal came to 0.0812 E-score.
As for GACGATCC, the binding signal was determined as 0.12 E-score.
To ACGCACGA belongs 0.277 E-score; to AGCTATAT, -0.261 E-score.
GTCTTCGA: the binding signal was -0.0605 E-score.
To ATCGCAGC belongs -0.0827 E-score.
GTGGGGAA: the binding signal was -0.05 E-score.
Next, CTTCTACC: 0.203 E-score; TCGAACAA: -0.172 E-score.
Next, AACAGATA: -0.098 E-score; GAGCAAAC: -0.213 E-score; CGGAAGCA: -0.0472 E-score.
For the sequence CAGCCATG, the binding signal is -0.0842 E-score.
With TATTCCCA, the binding signal was -0.167 E-score.
Consider CCGGTGAG, for which the binding signal was found to be 0.0307 E-score.
Next, CGGGGGAC: 0.113 E-score; GATCGTTA: -0.0888 E-score.
Next, CGTGCGAA: -0.0273 E-score.

These data come from paper PMC10668032.
